{"source": "PubChem BioAssay AID463173", "about": "(ICCB-Longwood Screening Facility, Harvard Medical School, 2010)", "note": "In all, about 52,000 compounds went through this assay and about 4,300 (8.3%) were called active. Cut-off read from the data, not from the text of the source: active = survival mostly below about 52% (no sharp cut-off); inactive = mostly above about 56%. This is one part of the list.", "data": [{"test_system": "DeltatarO mutant", "assay": "S. aureus survival, RN4220 and DeltatarO strains – OD600, teichoic acid synthesis inhibitors, primary screen (AID 463173)", "details": "S. aureus RN4220 wild type/DeltatarO growth, OD600, 18 h, active compounds read low, screened at 18.75 µg/mL (by protocol)", "values": [{"smiles": "COc1ccc(S(=O)(=O)Nc2cccc(-c3ccc(N4CCCCCC4)nn3)c2)cc1", "survival": "inactive: 86%"}, {"smiles": "Cc1c(C(=O)OCC2CCCCC2)[nH]c2c1C(=O)CC(c1ccc(Cl)cc1)C2", "note": "(configuration not stated)", "survival": "inactive: 94%"}, {"smiles": "Cc1cccc(NC(=O)CSc2nc(C3CCCC3)nc3c2c(=O)n(C)c(=O)n3C)c1C", "survival": "inactive: 67%"}, {"smiles": "Cc1ccc(Cn2cc(/C=C(/C#N)C(=O)Nc3cccc(Cl)c3)c3ccccc32)cc1", "survival": "inactive: 80%"}, {"smiles": "O=C(c1ccccc1)n1nc(-c2ccco2)nc1NCc1cccs1", "survival": "inactive: 81%"}, {"smiles": "CCOc1ccc(CN(Cc2ccco2)C(c2ccc(C(F)(F)F)cc2)c2nnnn2CCOC)cc1", "note": "(configuration not stated)", "survival": "inactive: 63%"}, {"smiles": "CCC(=O)OCc1cnc(C)c2oc(=O)c(C(=O)Nc3ccccc3C(F)(F)F)cc12", "survival": "inactive: 124%"}, {"smiles": "O=c1cc(-c2ccccc2)nc2cc(-c3ccc(F)cc3)[nH]n12", "survival": "inactive: 115%"}, {"smiles": "COc1cc2ccccc2cc1C(=O)Nc1cc(-c2nc3ccccc3o2)ccc1C", "survival": "inactive: 111%"}, {"smiles": "Cc1cccc(N(C)C(=O)CN(C)S(=O)(=O)c2ccc3[nH]c4c(c3c2)CCCC4)c1", "survival": "inactive: 87%"}, {"smiles": "O=C(NCC1CCCO1)c1cc2ccccc2oc1=O", "note": "(configuration not stated)", "survival": "inactive: 80%"}, {"smiles": "COc1ccc(CNC(=O)CSc2ncc3c(n2)-c2cc(Cl)ccc2N(Cc2ccccc2)S3(=O)=O)cc1OC", "survival": "inactive: 80%"}, {"smiles": "COc1ccccc1NC(=O)Cn1c(=O)n(CCc2ccccc2)c(=O)c2c3c(sc21)CN(C(C)=O)CC3", "survival": "inactive: 67%"}, {"smiles": "Cc1nnc(SCc2nc(-c3ccc(Cl)cc3)no2)n1-c1ccc(F)cc1", "survival": "inactive: 94%"}, {"smiles": "CCOc1ccccc1NC(=O)c1sc2nc(-c3ccc(OC)cc3)ccc2c1N", "survival": "inactive: 51%"}, {"smiles": "CCCN1CCN(CCNC(=O)Nc2cc(C)ccc2OC)CC1", "survival": "inactive: 82%"}, {"smiles": "COc1cc2c(C(=O)Nc3ccc(C)cc3Br)cn(C)c(=O)c2cc1OC", "survival": "inactive: 119%"}, {"smiles": "CCC1CCCCN1CCCNC(=O)c1c(O)nc2c(C)cccn2c1=O", "note": "(configuration not stated)", "survival": "inactive: 79%"}, {"smiles": "COc1ccc(-n2c(/C=C/c3cccc4ccccc34)nc3ccccc3c2=O)cc1Cl", "survival": "inactive: 78%"}, {"smiles": "COc1ccc(CC(=O)Nc2c(C(=O)Nc3ccc(F)cc3)oc3ccccc23)cc1OC", "survival": "inactive: 81%"}, {"smiles": "COc1ccc(OC)c(CCNC(=O)CN2C(=O)COc3ccc(S(=O)(=O)N4CCC(C)CC4)cc32)c1", "survival": "inactive: 67%"}, {"smiles": "CCCCNc1nc(Oc2ccc(OCCC)nn2)nc(N(C)C)n1", "survival": "inactive: 84%"}, {"smiles": "O=C(CCSCc1ccccc1F)N1CCN(c2ccc(Cl)cc2)CC1", "survival": "inactive: 81%"}, {"smiles": "Cc1nn(-c2ccc(N3CCCC3)nn2)c(C)c1CCC(=O)NCc1ccccc1F", "survival": "inactive: 82%"}, {"smiles": "COc1ccc(-c2nc3ccccc3o2)cc1NC(=O)CSc1ccc(Cl)cc1", "survival": "inactive: 72%"}, {"smiles": "CCCn1c(=O)c2sccc2n2c(CCCC(=O)Nc3ccccc3OCC)nnc12", "survival": "inactive: 72%"}, {"smiles": "Cc1ccc(CN(C(=O)COc2ccc(C(C)C)cc2)C2CCS(=O)(=O)C2)o1", "note": "(configuration not stated)", "survival": "inactive: 87%"}, {"smiles": "COc1ccc(CC(=O)N2CC(=O)Nc3ccc(Br)cc3C2c2ccc(F)cc2)cc1", "note": "(configuration not stated)", "survival": "active: 30%"}, {"smiles": "Cc1ccccc1C(=O)Nc1nnc(S(=O)(=O)N(C)Cc2ccc(Cl)cc2)s1", "survival": "inactive: 102%"}, {"smiles": "Cc1ccc(CNC(=O)c2nc(-c3ccc(Cl)cc3)n3c2CCCCC3)cc1", "survival": "inactive: 89%"}, {"smiles": "N#Cc1ccccc1Cn1c(=O)n(CCCCC(=O)NCc2ccc3c(c2)OCO3)c(=O)c2ccccc21", "survival": "inactive: 94%"}, {"smiles": "O=C(Cc1ccc(F)cc1)N1CCC(c2nc3c(nnn3Cc3ccc(F)cc3)c(=O)[nH]2)CC1", "survival": "inactive: 66%"}, {"smiles": "COc1ccc(-n2cccc2C=C(C#N)C#N)cc1", "survival": "inactive: 97%"}, {"smiles": "COc1ccc(OCC(=O)Nc2ccc(O)c(-c3nc4ccccc4s3)c2)cc1", "survival": "active: 43%"}, {"smiles": "O=C(NCCSCc1ccccc1Cl)C1CCN(S(=O)(=O)Cc2ccccc2)CC1", "survival": "inactive: 62%"}, {"smiles": "C=CCNc1ccc(C(=O)O)cc1", "survival": "inactive: 77%"}, {"smiles": "COc1ccc(NC(=O)CSc2nnc(NC(=O)Nc3ccccc3)s2)c(OC)c1", "survival": "active: 47%"}, {"smiles": "CCc1ccc(NC(=O)CSc2nc3ccccc3nc2Cc2ccccc2OC)cc1", "survival": "inactive: 70%"}, {"smiles": "Cc1cccc(OCC(=O)Nc2ccc(-c3nc4cc(C)ccc4o3)c(O)c2)c1", "survival": "inactive: 68%"}, {"smiles": "COc1ccc2cc(CN(Cc3cccnc3)Cc3nnnn3Cc3ccc(F)cc3)c(=O)[nH]c2c1", "survival": "inactive: 96%"}, {"smiles": "CCC1CN(C(=O)N2CCC(C(=O)NCCC3=CCCCC3)CC2)c2cc(C)ccc2O1", "note": "(configuration not stated)", "survival": "inactive: 77%"}, {"smiles": "Cc1ccc(OCC(=O)Nc2ccc(Cl)c(-c3nc4ccccc4[nH]3)c2)cc1C", "survival": "active: 43%"}, {"smiles": "COc1ccc(S(=O)(=O)N(CC(=O)N(C)Cc2ccccc2)c2ccc(Cl)cc2)cc1", "survival": "inactive: 57%"}, {"smiles": "COc1ccc(CNC(=O)CSc2nc3cc4c(cc3cc2C#N)OCCO4)cc1", "survival": "inactive: 96%"}, {"smiles": "Cn1cc(C(=O)NCc2ccc(Cl)cc2)c(=O)c2cc(S(=O)(=O)N3CCCCCC3)ccc21", "survival": "inactive: 59%"}, {"smiles": "Cc1cc(C)cc(NC(=O)N2CCN3CCCCC3C2)c1", "note": "(configuration not stated)", "survival": "inactive: 124%"}, {"smiles": "CCOC(=O)c1ccc(NC(=O)c2c(NCc3sccc3C)sc3c2CCCCC3)cc1", "survival": "inactive: 78%"}, {"smiles": "CC1CCCN(c2cc3c(cc2F)c(=O)c(S(=O)(=O)c2cccc(Cl)c2)cn3C)C1", "note": "(configuration not stated)", "survival": "inactive: 67%"}, {"smiles": "O=C1C2C(C(=O)N1/N=C/c1ccc(N3CCCCC3)o1)C1C=CC2C12CC2", "note": "(configuration not stated)", "survival": "inactive: 73%"}, {"smiles": "Cc1cc(C(=O)NCCc2ccc(Cl)cc2)c2c(C)nn(-c3cccc(F)c3)c2n1", "survival": "inactive: 87%"}, {"smiles": "O=C(Nc1ccccc1)c1ccc2c(c1)OCCO2", "survival": "inactive: 89%"}, {"smiles": "COC(=O)c1cc2sc(Cl)cc2n1Cc1nc(-c2ccc(OC)cc2)oc1C", "survival": "inactive: 72%"}, {"smiles": "COc1ccc(N(CC(=O)NCCc2cccc(C)c2)S(=O)(=O)c2c(C)noc2C)cc1", "survival": "inactive: 61%"}, {"smiles": "COc1cccc(C(=O)Nc2cc3cc(OC)ccc3oc2=O)c1", "survival": "inactive: 83%"}, {"smiles": "COc1ccccc1-c1nnc(SCC(=O)OC(C)C)n1-c1ccccc1", "survival": "inactive: 92%"}, {"smiles": "COC(=O)c1ccc(NC(=O)Cn2nc(C(=O)Nc3ccc(C)cc3)ccc2=O)cc1", "survival": "inactive: 78%"}, {"smiles": "Cc1ccc(NC(=O)Cn2c(CCC(=O)O)ccc2-c2ccc(Cl)cc2)cc1", "survival": "inactive: 53%"}, {"smiles": "COc1ccc(-c2[nH]c3c(c2-c2c(-n4cccc4)n(C)c(=O)n(C)c2=O)c(=O)n(C)c(=O)n3C)cc1", "survival": "inactive: 74%"}, {"smiles": "CCCCSCCCNC(=O)CN1C(=O)COc2ccc(S(=O)(=O)N3CCC(C)CC3)cc21", "survival": "inactive: 111%"}, {"smiles": "Cn1cc(C(F)(F)F)ccc1=S", "survival": "inactive: 96%"}, {"smiles": "O=C(Nc1nnc(S(=O)(=O)N2CCN(c3ccc(F)cc3)CC2)s1)c1ccc(Cl)cc1", "survival": "inactive: 57%"}, {"smiles": "COc1ccc(C)cc1NC(=O)C(=O)NCC1(c2ccccc2)CCCC1", "survival": "inactive: 85%"}, {"smiles": "Cc1ccc(C(=O)Nc2ccc(C(=O)OCc3cc(=O)n4ccsc4n3)cc2)cc1", "survival": "inactive: 72%"}, {"smiles": "CC(C)(C)c1ccc(C2NC(=O)c3n[nH]c(-c4cccs4)c32)cc1", "note": "(configuration not stated)", "survival": "inactive: 73%"}, {"smiles": "CCOc1ccc2c(c1)c(=O)c(C(=O)c1ccc(C)cc1)cn2Cc1ccccc1OC", "survival": "inactive: 71%"}, {"smiles": "CC(=O)c1cccc(NC(=O)N2CCC(CN3CCCCC3)CC2)c1", "survival": "inactive: 99%"}, {"smiles": "CC(C)c1ccc(NC(=O)Cn2c(=O)n(Cc3nc(-c4ccccc4)no3)c(=O)c3cc4c(cc32)OCO4)cc1", "survival": "inactive: 91%"}, {"smiles": "CCOc1ccccc1NC(=O)CN1C(=O)C2(SCC(=O)N2c2ccc(C)cc2)c2ccccc21", "note": "(configuration not stated)", "survival": "inactive: 67%"}, {"smiles": "CCS(=O)(=O)c1ncc(Cl)c(C(=O)N(Cc2ccccc2)c2ccc(OC)cc2)n1", "survival": "active: 36%"}, {"smiles": "Cc1cc(C)c(CN2C(=O)c3ccccc3S(=O)(=O)c3ccc(C(=O)OCC4CCCO4)cc32)c(C)c1", "note": "(configuration not stated)", "survival": "inactive: 89%"}, {"smiles": "Cc1ccccc1C(c1c(C)n(C)n(-c2ccccc2)c1=O)c1c(C)n(C)n(-c2ccccc2)c1=O", "survival": "inactive: 77%"}, {"smiles": "CC(C)CCNc1ncnc2c1cnn2-c1cccc(Cl)c1", "survival": "inactive: 103%"}, {"smiles": "COCCNC(=O)C(=O)NCC(c1cccnc1)N1CCN(c2ccccc2)CC1", "note": "(configuration not stated)", "survival": "active: 54%"}, {"smiles": "Cc1ccc(-n2c(SCC(=O)Nc3c(C)cccc3C)nc(O)c(C)c2=O)cc1", "survival": "inactive: 88%"}, {"smiles": "CCC1CN(C(=O)N2CCC(C(=O)NCc3ccco3)CC2)c2ccccc2O1", "note": "(configuration not stated)", "survival": "inactive: 66%"}, {"smiles": "Cc1ccccc1OCc1nnc(SCC(=O)N(Cc2ccccc2)C(C)(C)C)o1", "survival": "active: 59%"}, {"smiles": "CCCSc1nnc2n(-c3cccc(C)c3)c(=O)c3c4c(sc3n12)CCCC4", "survival": "active: 5%"}, {"smiles": "Cc1ccc(C)c(NC(=O)Cn2c(=O)n(Cc3ccc4c(c3)OCO4)c(=O)c3ccccc32)c1", "survival": "inactive: 87%"}, {"smiles": "Cc1cccc(C(=O)OCc2cc(=O)n3nc(-c4cccs4)sc3n2)c1", "survival": "inactive: 101%"}, {"smiles": "Cc1ccc(-n2ncc(C(=O)NCCCN3CCN(C)CC3)c2C2CCN(C(=O)OC(C)(C)C)CC2)c(C)c1", "survival": "inactive: 105%"}, {"smiles": "CC(C)(C)OC(=O)N1CCC(c2c(C(=O)N3CCCCC3)cnn2-c2ccc(F)cc2F)CC1", "survival": "inactive: 67%"}, {"smiles": "Cn1c(Oc2ccccc2)nc2c1c(=O)n(Cc1ccc(Cl)cc1Cl)c(=O)n2C", "survival": "inactive: 71%"}, {"smiles": "CCc1ccc(NC(=O)c2ccc(F)c(S(=O)(=O)NCCc3ccc(OC)c(OC)c3)c2)cc1", "survival": "inactive: 72%"}, {"smiles": "CCCN(Cc1cccs1)C(=O)Nc1ccc(F)c(Cl)c1", "survival": "inactive: 58%"}, {"smiles": "COc1cc(Cl)c(NC(=O)C(NS(=O)(=O)c2cccs2)C(C)C)c(OC)c1", "note": "(configuration not stated)", "survival": "inactive: 75%"}, {"smiles": "COc1ccc(OC)c(Nc2c3c(nc4ccccc24)CCC3)c1", "survival": "inactive: 94%"}, {"smiles": "CS(=O)(=O)N1CCc2cc(C(=O)Nc3ccc(S(N)(=O)=O)cc3)ccc21", "survival": "inactive: 48%"}]}]}
